In all, about 33,000 sequences were measured (“E-score (-0.5 to 0.5)”: median about -0.012, highest 2% from about 0.27 on). The list shows a part of the results.
Molecular target: T1, Vhr1 (UniProt P40522)
T1 sequence: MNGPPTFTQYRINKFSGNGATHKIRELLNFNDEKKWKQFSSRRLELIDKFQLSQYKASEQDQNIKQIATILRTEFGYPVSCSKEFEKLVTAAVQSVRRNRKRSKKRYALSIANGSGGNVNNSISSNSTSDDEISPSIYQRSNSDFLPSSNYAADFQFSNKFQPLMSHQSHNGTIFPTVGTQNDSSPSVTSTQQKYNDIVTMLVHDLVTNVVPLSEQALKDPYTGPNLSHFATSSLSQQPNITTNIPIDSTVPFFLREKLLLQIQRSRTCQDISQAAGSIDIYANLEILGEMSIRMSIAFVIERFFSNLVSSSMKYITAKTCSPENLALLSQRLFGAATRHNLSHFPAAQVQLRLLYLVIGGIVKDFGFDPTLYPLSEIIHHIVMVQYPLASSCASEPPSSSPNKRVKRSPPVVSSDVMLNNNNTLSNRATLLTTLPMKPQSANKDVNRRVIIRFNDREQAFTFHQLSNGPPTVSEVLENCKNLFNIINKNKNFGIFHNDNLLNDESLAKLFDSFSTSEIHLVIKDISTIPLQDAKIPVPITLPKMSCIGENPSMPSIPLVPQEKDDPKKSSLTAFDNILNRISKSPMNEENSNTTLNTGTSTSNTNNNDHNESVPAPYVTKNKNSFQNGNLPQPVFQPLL
Test: PBM E-score (8-mer binding enrichment) (E-score (-0.5 to 0.5)); higher = stronger / more preferred TF binding; most listed sequences are background and not binding sites
Details: protein concentration: 200 nM; construct: GST-full length
Method in brief: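 Detection of bound protein used fluorescent anti-GST, with scans normalised by masliner. The proteins were GST-tagged yeast transcription factors applied at about 100-200 nM to universal all-10-mer Agilent arrays made double-stranded by primer extension. Each ungapped eight-base word, pooled with its reverse complement, was scored with an E-score from the Universal PBM Analysis Suite.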

Row | Sequence | PBM E-score
1 | CAAGGTAC | -0.221
2 | CATGTCTC | 0.294
3 | CCTACCTC | 0.0528
4 | GTCGGGAA | 0.119
5 | CCCCCGTA | -0.123
6 | CTACTGAA | 0.132
7 | TACTTCAA | -0.0326
8 | CGGGCAAG | -0.00415
9 | CCAAATTC | -0.22
10 | ATTGTAGG | 0.138
11 | CCCTGGAG | -0.0798
12 | AGGGGACA | -0.0414
13 | CTATATTA | 0.194
14 | ATGACCCA | 0.362
15 | CCCATAGC | -0.116
16 | ACTTTGTC | -0.189
17 | CCAGCTCA | -0.0283
18 | GGGGCGTA | 0.0672
19 | CACTACCG | -0.0589
20 | CCGGCTGA | 0.17
21 | TCGACACA | 0.159
22 | ATAGAGTA | -0.0569

Row | Sequence | PBM E-score
23 | GGTGCGAA | 0.171
24 | ACAAGCCG | -0.0672
25 | GAACACGA | -0.01
26 | GGTTCAAC | -0.00014
27 | AAGATAGT | 0.169
28 | ATTGACCG | 0.168
29 | CCCAGATA | 0.106
30 | ATCTTATA | 0.147
31 | ACCATTCA | 0.105
32 | ACAGCCGC | 0.0674
33 | CAACGCGG | 0.092
34 | GAAGGCCA | -0.158
35 | AATAACAA | -0.231
36 | CACTACTG | 0.0812
37 | AAGAAAAG | -0.115
38 | TCGTACAA | 0.109
39 | CCAAGCCA | -0.0301
40 | AATCCGCA | 0.191
41 | AAGGTATC | -0.0689
42 | CTGGCGTA | -0.00936
43 | CTATGGTC | 0.121
44 | AATGTGCT | -0.0855

Row | Sequence | PBM E-score
45 | TCCGGTCA | -0.0985
46 | ACGCTTTC | -0.137
47 | CTGGCATC | -0.15
48 | AGGGCCTA | -0.277
49 | GAAACTAA | -0.163
50 | GCTATGAA | 0.0335
51 | AACACAAT | -0.0343
52 | ATTGTACG | -0.114
53 | GTCCAGTA | -0.151
54 | ATCGGGTG | 0.217
55 | CTGCCCCA | 0.0236
56 | ATACACGC | -0.0158
57 | TCCACTAA | 0.0296
58 | ACTCCTAA | 0.183
59 | ACTGCGTA | -0.0109
60 | ATAACATA | 0.23
61 | CGCCCGAG | 0.21
62 | CTGGGTAA | 0.103
63 | AAGGGCCA | -0.149
64 | CGCGCAAA | 0.0721
65 | TGGCTACA | 0.196
66 | CAAACAAA | -0.0999

Row | Sequence | PBM E-score
67 | AAGGGAGA | -0.147
68 | CACCTTGC | 0.0863
69 | GCTGCATA | 0.0549
70 | GATCATGA | 0.197
71 | CTCATCAC | 0.0121
72 | AGCTTTCA | -0.0375
73 | ACCCCGAT | 0.182
74 | AATGGCCA | -0.0559
75 | AGCGTCGA | 0.109
76 | CAAACAGC | 0.173
77 | GGTTGGAC | -0.175
78 | CGACGGTC | 0.127
79 | AAGTGCTA | -0.0633
80 | GCAGTTAA | 0.0301
81 | TCCTACCA | -0.189
82 | ATTCCTTG | -0.0414
83 | GAAGGAAA | -0.212
84 | TGAGGGCA | -0.115
85 | GGGTCAAC | 0.243
86 | ACATCTAC | 0.155

— the supplement of paper PMC3334620
